The campaign covered roughly 110,000 compounds. About 230 (0.21%) showed an effect of 50% or more. This is one part of the list.
Target: DPAP1 (Plasmodium falciparum, UniProt Q8IIJ9)
Experiment: primary screen, percent inhibition; read by cleavage of a fluorogenic dipeptide substrate; higher = more effect of the substance
Set-up: species or system P. falciparum D10 trophozoite lysates; single well
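Further: 30 min substrate incubation versus DMSO and 10 µM JCP410 controls.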

DPAP1, sequence (Q8IIJ9 whole entry, looked up): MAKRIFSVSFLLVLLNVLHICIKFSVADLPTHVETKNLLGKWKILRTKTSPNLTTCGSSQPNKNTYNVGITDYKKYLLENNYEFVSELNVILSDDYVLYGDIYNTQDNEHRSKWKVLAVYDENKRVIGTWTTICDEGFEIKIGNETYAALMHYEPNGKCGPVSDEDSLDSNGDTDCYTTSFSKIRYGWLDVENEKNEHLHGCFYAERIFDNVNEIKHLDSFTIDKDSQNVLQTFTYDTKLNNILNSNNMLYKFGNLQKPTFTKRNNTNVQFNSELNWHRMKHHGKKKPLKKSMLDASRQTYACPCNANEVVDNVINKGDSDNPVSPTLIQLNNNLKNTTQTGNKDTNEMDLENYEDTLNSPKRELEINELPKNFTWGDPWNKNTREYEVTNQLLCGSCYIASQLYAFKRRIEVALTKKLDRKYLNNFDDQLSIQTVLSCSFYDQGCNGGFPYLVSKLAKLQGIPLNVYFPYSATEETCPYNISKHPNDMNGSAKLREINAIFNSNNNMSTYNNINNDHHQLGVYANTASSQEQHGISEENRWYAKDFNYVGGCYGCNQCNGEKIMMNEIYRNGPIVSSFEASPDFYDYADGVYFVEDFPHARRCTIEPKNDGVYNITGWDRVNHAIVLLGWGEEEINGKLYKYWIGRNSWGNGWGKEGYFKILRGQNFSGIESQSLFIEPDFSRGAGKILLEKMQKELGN

Row | Compound | % Inhibition @ 10 uM [%]
1 | CCOc1ccccc1C(=O)Nc1nc(-c2ccccc2)c(C)s1 | -1.12
2 | N#CCNC(=O)[C@H](CSCc1ccccc1)NC(=O)c1cccc(O)c1 | -0.214
3 | O=C(O)Cc1sc(Nc2ccccn2)nc1-c1ccccc1 | -2.91
4 | COc1cc(C2C(C#N)=C(N)Oc3c2c(C)nn3-c2ccccc2)cc(OC)c1O (stereo not drawn) | 5.48
5 | O=C(Nc1ccccc1C(F)(F)F)c1cccc(Cl)c1 | -5.2
6 | COc1ccc(-c2nc(CS(=O)CC(=O)N3CCOCC3)c(C)o2)cc1 (stereo not drawn) | 2.37
7 | Fc1cccc(Cl)c1CN1CCN(c2ncccn2)CC1 | -4.95
8 | COC(=O)c1cc2oc(C)cc2n1CC(=O)N1CC(C)CC(C)C1 (stereo not drawn) | -6.59
9 | CC1CN(Cc2nc3c(c(=O)n(C)c(=O)n3C)n2Cc2c(F)cccc2Cl)CC(C)O1 (stereo not drawn) | -0.719
10 | COc1cc(-c2nc(O)c3c4c(sc3n2)CCCCCC4)ccc1OCC#N | -11.2
11 | COc1ccc(C(=O)/C=C/c2ccc(SC)cc2)c(OC)c1 | 0.912
12 | CC1=C(c2ccc(C)cc2)S(=O)(=O)N=C1N1CCN(c2ccccn2)CC1 | 2.27
13 | COc1ccc(CC(=O)Nc2c(-c3ccccc3)nc3cc(C)ccn23)cc1OC | -5
14 | CSc1ncc(C(=O)NCCCc2ccccc2)c(C)n1 | -2.3
15 | CC(O)CNC(=O)C12CC3CC(CC(C3)C1)C2 (stereo not drawn) | -3.46
16 | CCOC(=O)N1CCN(C(=O)CSc2nc3c(c(=O)n2Cc2ccccc2)SCC3)CC1 | -3.43
17 | C=C(C)c1cccc(C(C)(C)NC(=O)NC2CN3CCC2CC3)c1 (stereo not drawn) | 1.03
18 | CN(C)S(=O)(=O)c1ccc2c(c1)C(N1CCN(CCO)CC1)Cc1ccc(F)cc1S2 (stereo not drawn) | -11.2
19 | CCCCCC(=O)Nc1ncc2c(n1)CC(c1ccco1)CC2=O (stereo not drawn) | 0.673
20 | CCOC(=O)c1cc2c(=O)n3ccccc3nc2n(C(C)C)/c1=N\C(=O)CCc1ccccc1 | 4.37
21 | COc1ccc(C(C(=O)NC2CCCCC2)N2CCC3(CC2)OCCO3)cc1 (stereo not drawn) | 2.06
22 | COc1ccc2nc3oc(C(=O)NC4CCCc5ccccc54)cc3cc2c1 (stereo not drawn) | 0.208
23 | CCOc1cc(Br)cc(C(c2c(C)n(C)n(-c3ccccc3)c2=O)c2c(C)n(C)n(-c3ccccc3)c2=O)c1O | 1.04
24 | O=C(Cc1cccs1)NCCc1ccccc1 | 0.219
25 | O=c1cccc2n1C[C@H]1C[C@@H]2CN(Cc2ccccc2)C1 | -0.13

Row | Compound | % Inhibition @ 10 uM [%]
26 | COc1ccccc1-c1cc(/N=C(/NCc2ccco2)SC)[nH]n1 | 2.73
27 | O=C(CSCC(=O)Nc1ccc2ccccc2c1)NCC1CCCO1 (stereo not drawn) | -0.725
28 | COc1cc(-c2[nH]nc3c2C(c2c(F)cccc2Cl)C(C#N)=C(N)O3)cc(OC)c1OC (stereo not drawn) | 0.851
29 | CN(CCCNC(=O)CCn1cnc2onc(-c3ccc(F)cc3)c2c1=O)Cc1ccccc1 | -2.15
30 | CN(C)/C=C1/Sc2ccccc2C1=O | -2.9
31 | O=C(CNC(=S)N(Cc1cccs1)C1CCCCC1)NCc1ccc(F)cc1 | 1.27
32 | CCCOc1ccccc1C(=O)Nc1nonc1-c1ccc(OCC)c(OCC)c1 | 3.51
33 | CC(C)C[C@H](NC(=O)c1cc(N2CCOCC2)nc(N2CCOCC2)n1)C(=O)NCC#N | -3.48
34 | O=C(/C=C/Nc1cccc2cccnc12)c1cccs1 | -1.06
35 | CCOC(=O)C1=CN(Cc2ccc(F)cc2)C=C(C(=O)OCC)C1c1ccccc1Br | -1.48
36 | COc1cc(/C=C2N=C(/C=C/c3ccc(Cl)cc3)OC/2=O)cc(OC)c1OC | 2.77
37 | O=C1N=C(N2CCOCC2)S/C1=C\c1ccccc1F | 19.5
38 | CN(C)c1nc(N(C)C)nc(N(C#N)Cc2ccc(Cl)cc2)n1 | 2.57
39 | O=C(Nc1ccc(Cl)cn1)c1cnn(-c2ccccc2)c1-n1cccc1 | 2.58
40 | COc1ccc(C2Nn3c(nnc3-c3ccccc3)SC2C(=O)NCC2CCCO2)cc1 (stereo not drawn) | 0.0289
41 | O=C(NC1CCCCC1)c1nc[nH]c1C(=O)Nc1ccccc1 | -14.1
42 | COc1cccc(C(=O)c2cn(CC(N)=O)c3nc(C)ccc3c2=O)c1 | -2.25
43 | O=C(O)C#Cc1ccc2ccccc2c1 | 2.31
44 | COc1ccc2nc(NC(=O)CCn3cnnn3)sc2c1 | -2.05
45 | COc1ccc(-c2cc(-c3ccccc3)nc(OC)n2)cc1 | -2.35
46 | Cc1nn(C(C)C(=O)N2CC(C)CC(C)C2)c(=O)c2c1sc1ccccc12 (stereo not drawn) | -1.81
47 | Clc1ccc(CN2CCC(N3CCCCC3)CC2)cc1 | -2.21
48 | O=S(=O)(Nc1cccc(-c2cn3ccsc3n2)c1)c1ccc(F)cc1 | -0.366
49 | COc1cc(NC(=O)Cn2nc(C(F)(F)F)cc2C2CC2)c(C(C)=O)cc1OC | 2.08
50 | CC1CCCN(c2c3c(nc4ccccc24)CCCC3)C1 (stereo not drawn) | 0.317

Row | Compound | % Inhibition @ 10 uM [%]
51 | CCOC(=O)c1cc(-c2ccccc2)n(CCC(=O)N2CCCC(C)C2)c1C (stereo not drawn) | 1.2
52 | O=C1NC(=S)N(C2CCCCC2)C(c2ccccc2)C1c1ccccc1 (stereo not drawn) | 1.87
53 | Cc1nc2sc3c(c2c2nncn12)CCC3 | 2.47
54 | CCOc1ccc(/C=C2\C(=O)C3CCN2CC3)cc1 | 2.44
55 | O=C(Nc1nnc(S(=O)(=O)N2CCOCC2)s1)c1ccccc1Br | -1.72
56 | CC(C)C[C@H](NC(=O)c1cc(-c2ccccc2)cc(-c2ccccc2)c1)C(=O)NCC#N | 1.71
57 | O=C(c1cc2ccccc2s1)N1CCCCC1 | -2.6
58 | CN(C)CCCN(CCCN(C)C)Cc1ccc(F)c(F)c1 | 0.0792
59 | Cc1nc(-c2ccccc2)c2c(O)cc(-c3ccccc3)nc2n1 | -4.58
60 | CCN1CCN(CC(O)COc2c(C)cccc2C)CC1 (stereo not drawn) | -2.37
61 | CC(NC(=O)c1cccs1)C(c1cccs1)N1CCN(C)CC1 (stereo not drawn) | 0.66
62 | CC(C)(C)C1=CC(=O)C(=O)C(C(C)(C)C)=C1 | 1.84
63 | Cc1ccc(S(=O)(=O)Cc2ccc(C(=O)NCc3ccccc3Cl)o2)cc1 | -3.32
64 | O=C(O)[C@@H]1CCCN1Cc1ccccc1 | 0.503
65 | Cc1c(CC(=O)NCc2ccc(Cl)cc2)c(=O)oc2c(C)c(O)ccc12 | 5.68
66 | COc1ccccc1N1C(=O)CC(N2CCN(Cc3ccc4c(c3)OCO4)CC2)C1=O (stereo not drawn) | -4.89
67 | CCOc1ccc(CNS(=O)(=O)c2ccc3oc(=O)c4ncn(C)c4c3c2)cc1OC | -7.88
68 | O=C1N=C(N2CCOCC2)S/C1=C/c1ccccc1 | 4.39
69 | Cc1ccc(C(C)C)c(OCC(O)CNC(C)C)c1 (stereo not drawn) | 3.82
70 | Cc1ccc(C2CC(=O)NC(SCCc3ccccc3)=C2C#N)cc1 (stereo not drawn) | 0.726
71 | COc1cccc(C(=O)NC2(C(F)(F)F)C(=O)Nc3c2c(=O)[nH]c(=O)n3-c2ccccc2)c1 (stereo not drawn) | -1.28
72 | O=C(O)C(Cc1ccccc1)n1cccc1 (stereo not drawn) | -2.17
73 | Cc1ccccc1CN1CCN(c2ccc([N+](=O)[O-])cc2)CC1 | -1.86
74 | COc1ccc(-c2cc(-c3nnc(N)o3)no2)cc1 | -3.53
75 | COc1ccc(-c2c3c(=O)n(C)c(=O)n(C)c3cn2-c2ccc(Br)cc2)cc1 | -5.85

Row | Compound | % Inhibition @ 10 uM [%]
76 | Cc1c(C(=O)N2CCOCC2)oc2c1-c1nn(CC(=O)NCC(C)c3ccccc3)cc1CC2 (stereo not drawn) | 3.88
77 | CC(NC(=O)CCCC(=O)NC(C)c1ccccc1)c1ccccc1 (stereo not drawn) | -4.43
78 | Cc1ccc(-c2ccc(/C=C3\SC(N4CCOCC4)=NC3=O)o2)cc1 | 12.2
79 | COc1cc(-c2nc(Cc3ccccc3Cl)no2)cc(OC)c1OC | 1.62
80 | CCCNC(=O)CCCn1nc(C)c2sc3ccccc3c2c1=O | 0.39
81 | CCOC(=O)N1CCC(NC(=O)c2cnn3c(C(F)(F)F)cc(-c4ccc(C)cc4)nc23)CC1 | -6.13
82 | COc1cccc(C(CC(=O)O)NS(=O)(=O)c2ccc(F)cc2)c1OC (stereo not drawn) | -5.64
83 | Nc1c(NCc2ccccc2)c2ccccc2sc1=O | 6.7
84 | CCC[C@@H](NC(=O)OCc1ccccc1)C(=O)c1noc(C(=O)NCc2ccc(C)o2)n1 | 19.1
85 | COc1ccc(S(=O)(=O)c2c(SC)nn(Cc3cccc(F)c3)c2N)cc1 | -2.48
86 | C[C@H]1Oc2ccccc2C(=O)C1C(=O)c1ccccc1 (stereo partly drawn) | 2.36
87 | COc1cccc(C2CC3=NC(C)=C(C(=O)OCCOC(C)C)C(c4ccc(C)s4)C3=C(O)C2)c1 (stereo not drawn) | 6.97
88 | COCCN(CCOC)c1ncnc2c1c(-c1ccccc1)cn2-c1ccc(Cl)cc1 | 0.925
89 | COc1ccc(CCNC(=O)COc2cc(Cl)ccc2Cl)cc1OC | -6.06
90 | O=C(O)COc1ccc(Br)cc1/C=C1/SC(=O)N(CC(=O)N2CCCC2)C1=O | -1.98
91 | CCn1nc(C(=O)Nc2ccccc2C)c(Cl)c1Cl | -6.92
92 | CCC1CCCCN1C1CC(=O)N(c2ccc(Br)cc2)C1=O (stereo not drawn) | 3.69
93 | CCOC(=O)c1sc(N2C(=O)c3oc4ccccc4c(=O)c3C2c2cccnc2)nc1C (stereo not drawn) | 5.89
94 | Cc1sc(NC(=O)CCc2ccccc2)c(C(=O)O)c1C | -1.36
95 | CCC1CCC(C(=O)N2CCOCC2)CC1 (stereo not drawn) | -5.31
96 | Cc1ccccc1C(=O)Nc1ccccc1C#N | 3.24
97 | CCc1ccc(-c2nc(CN3CCC(C(=O)N4CCN(c5ccccn5)CC4)CC3)c(C)o2)cc1 | -1.05
98 | COc1ccc(-c2noc(N3CCC(C(=O)NCCCN4CCCC4=O)CC3)n2)cc1 | 2.25
99 | Cc1cc(C)cc(OCc2nc(-c3ccc(-n4cccc4)cc3)no2)c1 | -0.828
